Some of the results follow. The energies were worked out here from pooled read counts, against the library average; single values are noisy.

This test concerns the target T1, Pho4 (S. cerevisiae) (UniProt P07270).
T1 sequence: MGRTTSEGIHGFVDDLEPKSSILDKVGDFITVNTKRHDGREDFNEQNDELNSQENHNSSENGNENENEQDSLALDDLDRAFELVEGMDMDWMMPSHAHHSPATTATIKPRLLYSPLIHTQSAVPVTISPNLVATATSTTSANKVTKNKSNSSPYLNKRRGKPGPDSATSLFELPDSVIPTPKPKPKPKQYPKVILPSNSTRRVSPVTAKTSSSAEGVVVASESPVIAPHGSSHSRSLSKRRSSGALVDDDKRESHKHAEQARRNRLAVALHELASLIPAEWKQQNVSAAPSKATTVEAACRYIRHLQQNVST
The test is described as follows: relative binding free energy (BET-seq); higher = weaker binding. As to conditions: reference: library average.
On to GGAATCACGTGGGGTA, for which the “relative binding free energy” value was found to be 0.09 kcal/mol. The figure for GCGTACACGTGGCGGG is 0.04 kcal/mol.

CTTCGCACGTGTGAGG: the “relative binding free energy” value is -0.01 kcal/mol. TGATTCACGTGCGTAG: the “relative binding free energy” value was determined as 0.24 kcal/mol. The figure for GGCCGCACGTGTAGGT is -0.03 kcal/mol. The value for TAGGGCACGTGGTACG was -0.19 kcal/mol. Regarding AAGGGCACGTGGTTTA, the “relative binding free energy” value is -0.1 kcal/mol. The figure for TGTGTCACGTGAAATG is 0.26 kcal/mol; for GCGATCACGTGTTTGT it is 0.14 kcal/mol; for TGTATCACGTGCGCGT it is -0.11 kcal/mol. The value for TCGGACACGTGGGGAG was -0.09 kcal/mol.

For GCGGGCACGTGGGACT, the “relative binding free energy” value is -0.22 kcal/mol. The figure for AATTACACGTGGTTGA is 0.09 kcal/mol; for GTAGACACGTGAAGTG it is 0.3 kcal/mol; for GTATGCACGTGCGGGT it is -0.05 kcal/mol. The figure for AGATCCACGTGTGGTA is 0.09 kcal/mol. The figure for GTTTACACGTGGTCGG is 0.15 kcal/mol. Regarding GGGTGCACGTGTTGTA, the “relative binding free energy” value was found to be 0.12 kcal/mol. Regarding GATGGCACGTGGTGTT, the “relative binding free energy” value was -0.03 kcal/mol. The value for TCCGGCACGTGGTTGT was 0.02 kcal/mol.

As to CTGAACACGTGTGTGG, the “relative binding free energy” value was -0.04 kcal/mol. The value for TTGGCCACGTGGAGTT was -0.23 kcal/mol.

As for TGTAACACGTGAATTT, the “relative binding free energy” value stood at 0.17 kcal/mol. For GTATTCACGTGGTATT, the “relative binding free energy” value was 0.2 kcal/mol. The value for GGCAACACGTGAGTGG was 0.23 kcal/mol. The figure for AGTCTCACGTGGCGTG is 0.11 kcal/mol; for AGAGGCACGTGTGGAG it is -0.03 kcal/mol; for TTGGGCACGTGTAGCT it is 0.06 kcal/mol. The value for GAGTACACGTGTGTCT was 0.18 kcal/mol. With AATGGCACGTGATGGG, the “relative binding free energy” value stood at 0.01 kcal/mol. As for GCTTTCACGTGGTCTG, the “relative binding free energy” value is 0.35 kcal/mol.

Consider TTATCCACGTGTGCTG, for which the “relative binding free energy” value is 0.06 kcal/mol. In the case of ATCGTCACGTGTGGAA, the “relative binding free energy” value amounted to 0.03 kcal/mol. Take AATTTCACGTGTGAAG: the “relative binding free energy” value worked out at 0.38 kcal/mol. The figure for TTATACACGTGAGCTG is 0.28 kcal/mol; for TGATACACGTGAGTAG it is 0.14 kcal/mol; for GGGCACACGTGGGGGG it is -0.01 kcal/mol.

Regarding GAGGGCACGTGATGCG, the “relative binding free energy” value is -0.05 kcal/mol.

Regarding TGTGTCACGTGGGCGT, the “relative binding free energy” value was -0.16 kcal/mol.

On to GTGTGCACGTGATGCT, for which the “relative binding free energy” value was found to be 0.17 kcal/mol. For the sequence TGTAACACGTGTAGGT, the “relative binding free energy” value was 0.13 kcal/mol. Turning to GAAAGCACGTGCGGGT, the “relative binding free energy” value was -0.12 kcal/mol.

On to GGCGTCACGTGGGATG, for which the “relative binding free energy” value turned out to be 0.03 kcal/mol.

Take CTGTGCACGTGTAATG: the “relative binding free energy” value is -0.03 kcal/mol. Turning to GGTTTCACGTGCCTTT, the “relative binding free energy” value came to 0.24 kcal/mol. The figure for TCTAGCACGTGTGTGT is -0.14 kcal/mol; for CGGGTCACGTGTCAGT it is 0.15 kcal/mol; for AATATCACGTGGCGGG it is 0.1 kcal/mol.

In the case of CTAGTCACGTGTTTAA, the “relative binding free energy” value is 0.25 kcal/mol. The value for TGGTCCACGTGGCATG was -0.05 kcal/mol; that for GAGTTCACGTGTGGGT was 0.38 kcal/mol; that for TACTGCACGTGTGTGG was 0.11 kcal/mol. The figure for GGTTTCACGTGAATGA is 0.49 kcal/mol. The value for TGTTTCACGTGTCTCG was 0.28 kcal/mol. With AGGGGCACGTGACGGA, the “relative binding free energy” value is -0.03 kcal/mol. With CTGTCCACGTGTTGTA, the “relative binding free energy” value came out at 0.05 kcal/mol. The figure for GGAAGCACGTGGGATT is -0.07 kcal/mol; for GATGACACGTGTTATG it is 0.05 kcal/mol; for GACGTCACGTGGGTAG it is 0.05 kcal/mol. The figure for TCGGGCACGTGTACGT is -0.07 kcal/mol; for TGTATCACGTGGAGGA it is 0 kcal/mol; for CGTGCCACGTGGTGAG it is -0.23 kcal/mol. The figure for GCTTTCACGTGGTGTG is 0.22 kcal/mol; for GGTTCCACGTGATTTG it is 0.32 kcal/mol.

Take TTGATCACGTGATCTT: the “relative binding free energy” value was 0.24 kcal/mol. Take TAGGGCACGTGCGGGG: the “relative binding free energy” value was -0.13 kcal/mol.

For the sequence AGATTCACGTGGTCAG, the “relative binding free energy” value turned out to be 0.24 kcal/mol. The figure for TGGTCCACGTGGAATG is 0.08 kcal/mol; for GTTGGCACGTGGCCGA it is -0.06 kcal/mol; for CGTAGCACGTGGGATA it is -0.13 kcal/mol. The figure for GGGGACACGTGCGCGT is -0.2 kcal/mol. The figure for CTTTCCACGTGAGGGG is 0.3 kcal/mol; for TAAGACACGTGATTGG it is 0.19 kcal/mol. Take GAGGGCACGTGAGGGC: the “relative binding free energy” value amounted to 0.13 kcal/mol. The figure for GGTGACACGTGGCAGT is 0 kcal/mol; for GGTTTCACGTGTCCGG it is 0.39 kcal/mol; for ATTTACACGTGTGAGC it is 0.24 kcal/mol. As for TATGGCACGTGAGCGA, the “relative binding free energy” value came out at 0.12 kcal/mol.

For the sequence TGTGTCACGTGCTATA, the “relative binding free energy” value stood at 0.03 kcal/mol. On to CTTTTCACGTGTTCAG, for which the “relative binding free energy” value was determined as 0.2 kcal/mol. The figure for TGGAGCACGTGATGAA is 0.08 kcal/mol. With TTTGCCACGTGGTTGG, the “relative binding free energy” value is -0.05 kcal/mol. The figure for TAGAACACGTGGGTGC is -0.13 kcal/mol; for GGTGCCACGTGTGGTC it is -0.04 kcal/mol. Take ATTATCACGTGTTTAG: the “relative binding free energy” value is 0.04 kcal/mol. For ATAATCACGTGTGTTC, the “relative binding free energy” value amounted to 0.1 kcal/mol. The value for TTTAGCACGTGTACAG was 0.02 kcal/mol; that for AAGGTCACGTGGGTGT was -0.06 kcal/mol; that for GTAGCCACGTGGTGGA was -0.11 kcal/mol. The value for TGGGGCACGTGAGACA was 0.06 kcal/mol; that for CGGTGCACGTGGAAGG was 0.01 kcal/mol.

With CAGTGCACGTGATCGG, the “relative binding free energy” value stood at 0.17 kcal/mol. GGTCGCACGTGGTGAG: the “relative binding free energy” value was -0.06 kcal/mol.

For AGGGGCACGTGTGGTG, the “relative binding free energy” value is -0.02 kcal/mol.

As to CAGGTCACGTGGGTCT, the “relative binding free energy” value was 0 kcal/mol. The value for TTTTGCACGTGGGTGG was -0.05 kcal/mol; that for TTAGTCACGTGGTTGG was 0.11 kcal/mol. Regarding AGAGACACGTGGTTTG, the “relative binding free energy” value is -0.06 kcal/mol. The value for ATTAACACGTGTAGAG was -0.04 kcal/mol; that for GGTCTCACGTGGTATT was 0.19 kcal/mol. For the sequence GTCGGCACGTGAGAGT, the “relative binding free energy” value came out at 0.01 kcal/mol.

On to GGTTTCACGTGCATTT, for which the “relative binding free energy” value amounted to 0.42 kcal/mol.

As for TTTTCCACGTGCGTGT, the “relative binding free energy” value amounted to 0.03 kcal/mol. For GTGGTCACGTGCTAGT, the “relative binding free energy” value was 0.07 kcal/mol. Consider GGGTGCACGTGGTGTT, for which the “relative binding free energy” value is -0.05 kcal/mol.

With GGAATCACGTGAGGTT, the “relative binding free energy” value stood at 0.45 kcal/mol.

In the case of TTCGGCACGTGTGGTC, the “relative binding free energy” value was 0.01 kcal/mol. The value for GGCACCACGTGTTGGG was 0.07 kcal/mol; that for AGGTGCACGTGGGTAG was -0.14 kcal/mol.

Take GCTCGCACGTGGAGGG: the “relative binding free energy” value was -0.08 kcal/mol.

For GAGTCCACGTGTAAGG, the “relative binding free energy” value worked out at 0.2 kcal/mol. The value for GTGGTCACGTGGACGA was 0.12 kcal/mol; that for ATTGGCACGTGAATGG was 0.05 kcal/mol; that for GTTTGCACGTGGTATG was 0.06 kcal/mol. Regarding TTGGGCACGTGTTAAA, the “relative binding free energy” value came out at 0.02 kcal/mol.

The values above are taken from the BET-seq Pho4 binding data (Le et al. 2018).
